# The list shows a part of the results. These are noisy estimates, calculated here from bound and input reads.
# Molecular target: T1, Pho4 (S. cerevisiae) (UniProt P07270)
# T1 sequence: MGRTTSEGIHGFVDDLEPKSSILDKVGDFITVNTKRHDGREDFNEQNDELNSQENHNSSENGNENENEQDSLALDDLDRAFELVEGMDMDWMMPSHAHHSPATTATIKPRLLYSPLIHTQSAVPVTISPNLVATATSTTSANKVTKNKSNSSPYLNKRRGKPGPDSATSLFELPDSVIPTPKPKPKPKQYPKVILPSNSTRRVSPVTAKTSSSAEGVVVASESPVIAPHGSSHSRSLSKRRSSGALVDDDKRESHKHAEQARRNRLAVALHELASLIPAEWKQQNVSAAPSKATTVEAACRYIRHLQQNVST
# Assay: relative binding free energy (BET-seq); higher = weaker binding
# Settings: reference: library average
row,Sequence,relative binding free energy
1,ATTTTCACGTGGCAGA,0.21 kcal/mol
2,TTTGGCACGTGAAGCA,0.07 kcal/mol
3,CGTGACACGTGTTAAG,0 kcal/mol
4,GTTAACACGTGAGTGT,0.17 kcal/mol
5,GGAGTCACGTGGCGAG,0.19 kcal/mol
6,CTGCGCACGTGCGGTG,-0.14 kcal/mol
7,TCAGTCACGTGGGGTC,0.04 kcal/mol
8,TTGATCACGTGTTGAA,0.15 kcal/mol
9,TGTATCACGTGCGAAT,0.29 kcal/mol
10,ACTATCACGTGTGGGT,0.19 kcal/mol
11,GAAGGCACGTGATGGT,0.14 kcal/mol
12,TGAGACACGTGAGGTC,0.35 kcal/mol
13,TTGATCACGTGAGGGT,0.37 kcal/mol
14,TATGGCACGTGAGGAC,0.06 kcal/mol
15,AGAAACACGTGGAGTG,-0.04 kcal/mol
16,TCGTTCACGTGGTAAT,0.18 kcal/mol
17,GATGTCACGTGTGTTA,0.03 kcal/mol
18,TGTGACACGTGTAGCT,0.07 kcal/mol
19,GGGGGCACGTGAGCTG,0.15 kcal/mol
20,GGTATCACGTGGAGTA,0.07 kcal/mol
21,TAATGCACGTGATATG,0.06 kcal/mol
22,TAGGCCACGTGGATTT,-0.02 kcal/mol
23,CGGGACACGTGTGGGC,0.23 kcal/mol
24,TGTTTCACGTGTCCGT,0.33 kcal/mol
25,GGGAGCACGTGCGATT,-0.05 kcal/mol
26,TTGAGCACGTGTGGAA,0.07 kcal/mol

row,Sequence,relative binding free energy
1,CTGCCCACGTGGGGGG,-0.3 kcal/mol
2,GTGATCACGTGGATTT,0.13 kcal/mol
3,CTGCACACGTGGGGAG,0.08 kcal/mol
4,GTGACCACGTGTAGGG,-0.02 kcal/mol
5,GGTAGCACGTGAGCGG,0.07 kcal/mol
6,GTCAGCACGTGTAGTT,0.1 kcal/mol
7,AAGGGCACGTGTTAAA,-0.19 kcal/mol
8,GGTTGCACGTGCTTAT,-0.05 kcal/mol
9,GGCATCACGTGTTGGT,0.1 kcal/mol
10,GAGGGCACGTGAGTCG,0.23 kcal/mol
11,GATGTCACGTGGCATG,0.01 kcal/mol
12,AGAATCACGTGTGGAA,0.25 kcal/mol
13,GGTCTCACGTGGGAAT,0.18 kcal/mol
14,GCAGACACGTGTGGGG,0.23 kcal/mol
15,TATGGCACGTGATGGT,0.07 kcal/mol
16,AGAGGCACGTGTAAAG,-0.03 kcal/mol
17,TAGTGCACGTGGTGTA,-0.03 kcal/mol
18,ATGGGCACGTGCATAG,-0.26 kcal/mol
19,AGGAGCACGTGGGTAG,-0.3 kcal/mol
20,TTTTACACGTGACAGT,0.25 kcal/mol
21,GTAGTCACGTGACAGG,0.26 kcal/mol
22,ATCGACACGTGAGGTG,0.22 kcal/mol
23,TTACACACGTGGTTTT,-0.07 kcal/mol
24,TTTGGCACGTGGTGAT,-0.15 kcal/mol
25,AATGTCACGTGGAGTA,0.03 kcal/mol
26,TGGTGCACGTGGTCAG,-0.01 kcal/mol

row,Sequence,relative binding free energy
1,TGGGCCACGTGTTTGG,-0.07 kcal/mol
2,ACTTTCACGTGAGGGA,0.29 kcal/mol
3,TGCTGCACGTGGTCTT,-0.17 kcal/mol
4,TAGAACACGTGCGGGT,-0.09 kcal/mol
5,TGTGGCACGTGTTTAT,0.1 kcal/mol
6,TATATCACGTGTAGGC,0.25 kcal/mol
7,ATGCGCACGTGGGGTT,-0.24 kcal/mol
8,TTCATCACGTGTCGTG,0.24 kcal/mol
9,ATTTACACGTGAGGAA,0.29 kcal/mol
10,AGAGGCACGTGGCTGT,-0.27 kcal/mol
11,TTCGGCACGTGTCTAG,0.12 kcal/mol
12,TTTAACACGTGTCGTC,0.15 kcal/mol
13,GTTGTCACGTGTACGG,0.27 kcal/mol
14,TTGGACACGTGTGCAG,0.07 kcal/mol
15,TAGGTCACGTGGATCT,0.03 kcal/mol
16,ATGTGCACGTGGGATC,-0.11 kcal/mol
17,GACGTCACGTGGGTTG,-0.12 kcal/mol
18,CGGGACACGTGGGCTT,0.11 kcal/mol
19,GAATTCACGTGTATGG,0.22 kcal/mol
20,TCAGGCACGTGTGTGC,-0.06 kcal/mol
21,CAAGGCACGTGGTTAT,-0.17 kcal/mol
22,TCAAACACGTGTGTGT,-0.13 kcal/mol
23,TGAGTCACGTGGGTAA,-0.07 kcal/mol
24,TAAGTCACGTGAATGA,0.35 kcal/mol
25,TTAAACACGTGGATGT,-0.09 kcal/mol
26,GTTTACACGTGCGGGT,0.17 kcal/mol

row,Sequence,relative binding free energy
1,TACGACACGTGGGTTT,-0.16 kcal/mol
2,TCATACACGTGGTAGT,-0.01 kcal/mol
3,GAGGTCACGTGAGTGG,0.37 kcal/mol
4,ATCGACACGTGGTGTA,-0.06 kcal/mol
5,GGCGTCACGTGTATTG,0.26 kcal/mol
6,ACGTGCACGTGTTTAG,0.01 kcal/mol
7,GTGTGCACGTGTCCGG,0.03 kcal/mol
8,GGTGGCACGTGGATAA,0.06 kcal/mol
9,GTACGCACGTGTTGGC,-0.03 kcal/mol
10,CAGGGCACGTGAGGGT,0.12 kcal/mol
11,GTTCACACGTGGGAGT,0.08 kcal/mol
12,AAACGCACGTGTTTGT,-0.08 kcal/mol
13,ATGGGCACGTGAAATT,0.32 kcal/mol
14,GTGCACACGTGATTGT,0.24 kcal/mol
15,ATTGACACGTGCGTAT,-0.13 kcal/mol
16,TAGTTCACGTGACGGT,0.49 kcal/mol
17,GTATTCACGTGGGCCT,0.22 kcal/mol
18,CGTCTCACGTGGTTTT,0.24 kcal/mol
19,CATATCACGTGCTTGT,0.26 kcal/mol
20,GGAGTCACGTGAGGTC,0.25 kcal/mol
21,ATCTTCACGTGTTTGG,0.25 kcal/mol
22,GGCGACACGTGAGGGA,0.33 kcal/mol
23,AGTATCACGTGATTTG,0.23 kcal/mol
24,GGCATCACGTGGGCAG,-0.02 kcal/mol
25,AGATTCACGTGTGAGA,0.41 kcal/mol
26,TAATGCACGTGGTCGT,-0.09 kcal/mol

row,Sequence,relative binding free energy
1,CTGCGCACGTGTGGGT,-0.19 kcal/mol
2,TTAGGCACGTGTGTAC,-0.06 kcal/mol
3,GGACTCACGTGAGGTG,0.33 kcal/mol
4,TATAGCACGTGAGCAG,0.15 kcal/mol
5,GGGTACACGTGGGCGG,-0.02 kcal/mol
6,TTCGGCACGTGAGAAT,0.16 kcal/mol
7,AATGTCACGTGTGATT,0.2 kcal/mol
8,ATGTTCACGTGATAAG,0.29 kcal/mol
9,TAATTCACGTGATATC,0.46 kcal/mol
10,AGAGTCACGTGTTTGG,0.2 kcal/mol
11,CCGGCCACGTGGGGGG,-0.27 kcal/mol
12,AAGGGCACGTGTAAGG,-0.08 kcal/mol
13,CTGGGCACGTGGAAGT,-0.2 kcal/mol
14,TTCCGCACGTGGGTTG,-0.25 kcal/mol
15,GCAGGCACGTGAGGGG,0.15 kcal/mol
16,GGCTTCACGTGTTAGG,0.13 kcal/mol
17,TGGTACACGTGGGGGG,-0.12 kcal/mol
18,TGGTTCACGTGCTTTT,0.31 kcal/mol
19,AATGGCACGTGTTCTG,-0.11 kcal/mol
20,AGGGTCACGTGCTGTG,0.11 kcal/mol
21,GGTGGCACGTGCTAGA,-0.2 kcal/mol
22,ATTTGCACGTGAGGGA,0.21 kcal/mol
23,TGAAACACGTGGGATT,-0.12 kcal/mol
24,GGGGGCACGTGACTGT,0.07 kcal/mol
25,AGTTACACGTGTTACT,0.21 kcal/mol
26,AGGGGCACGTGTTACA,-0.18 kcal/mol

row,Sequence,relative binding free energy
1,GTTACCACGTGATGTT,0.14 kcal/mol
2,GGAGTCACGTGTATTG,0.03 kcal/mol
3,GTAGTCACGTGGGGAA,0.01 kcal/mol
4,GGGCGCACGTGTGGCG,-0.02 kcal/mol
5,GTAAGCACGTGGTATA,-0.12 kcal/mol
6,TCGGACACGTGGATGG,-0.02 kcal/mol
7,CGTCTCACGTGATAGT,0.48 kcal/mol
8,GGGGTCACGTGGTTTT,0.32 kcal/mol
9,TACTGCACGTGTGATG,0.16 kcal/mol
10,TTGGGCACGTGACACG,0.01 kcal/mol
11,TAGAGCACGTGTGATG,-0.01 kcal/mol
12,TGGCGCACGTGCTGAG,-0.04 kcal/mol
13,TCATACACGTGTCGGG,0.31 kcal/mol
14,AGGGACACGTGTAAAT,0.22 kcal/mol
15,TGATACACGTGTCAGG,0.12 kcal/mol
16,TAGGTCACGTGTCATT,0.21 kcal/mol
17,GGTGACACGTGGAGTG,0.01 kcal/mol
18,ATATTCACGTGGTAGC,0.17 kcal/mol
19,CAGTTCACGTGAGTGT,0.39 kcal/mol
20,CTAGTCACGTGTGAGG,0.15 kcal/mol
21,TAGTTCACGTGAAGTA,0.29 kcal/mol
22,ATTGCCACGTGTTATG,-0.12 kcal/mol
23,ACTGTCACGTGCGTGT,-0.09 kcal/mol
24,GTGCCCACGTGGGTTG,-0.24 kcal/mol
25,GAGTACACGTGGGCAG,0 kcal/mol
26,AAAGGCACGTGTCAGT,-0.03 kcal/mol

row,Sequence,relative binding free energy
1,GGGATCACGTGTATAG,0.24 kcal/mol
2,TAATTCACGTGTGGGC,0.31 kcal/mol
3,GAGAGCACGTGAGTGA,0.36 kcal/mol
4,AGGTGCACGTGGTGTG,-0.11 kcal/mol
5,TTGCTCACGTGAGGAT,0.19 kcal/mol
6,TGGTTCACGTGCGGAC,0.25 kcal/mol
7,TGGGCCACGTGGTGTG,-0.12 kcal/mol
8,TATATCACGTGCGATG,0.17 kcal/mol
9,AGGGGCACGTGTCATG,-0.13 kcal/mol
10,CTATACACGTGTAGTG,-0.01 kcal/mol
11,GTGTCCACGTGAGTGA,0.15 kcal/mol
12,GTTGTCACGTGAGGAT,0.36 kcal/mol
13,TGAGTCACGTGGGTGT,-0.01 kcal/mol
14,GGGGGCACGTGTTAGA,-0.13 kcal/mol
15,AGTGGCACGTGGAGCA,-0.09 kcal/mol
16,GATCGCACGTGTGGGT,-0.04 kcal/mol
17,CAGGACACGTGTGTTG,0.15 kcal/mol
18,CTGGTCACGTGCGTAG,0 kcal/mol
19,TTTGACACGTGGCGTG,0.02 kcal/mol
20,GTTGACACGTGGTTGT,-0.02 kcal/mol
21,CAGGGCACGTGGATGG,-0.09 kcal/mol
22,CGTGTCACGTGTGAAG,0.17 kcal/mol
23,GGAGGCACGTGTTTAA,0.02 kcal/mol
24,TTTTGCACGTGTATTA,0.1 kcal/mol
25,AGGGCCACGTGGCTGG,-0.12 kcal/mol
26,ATTGTCACGTGAGAAA,0.24 kcal/mol

row,Sequence,relative binding free energy
1,AGAGTCACGTGTTGTC,0.19 kcal/mol
2,TTCGTCACGTGCTTAG,0.14 kcal/mol
3,GCTATCACGTGCGTTG,0.21 kcal/mol
4,AGTTACACGTGAAGGG,0.34 kcal/mol
5,TAGATCACGTGTACGT,0.16 kcal/mol
6,TAGGTCACGTGAGTGC,0.27 kcal/mol
7,AGTAGCACGTGTAGTT,-0.1 kcal/mol
8,TTGGCCACGTGGGTTA,-0.14 kcal/mol
9,CCGGTCACGTGGTGCG,0.03 kcal/mol
10,TGACTCACGTGAGAGT,0.34 kcal/mol
11,CTGGGCACGTGAGGGG,0.11 kcal/mol
12,TGGTGCACGTGGCTAT,-0.12 kcal/mol
13,GTATTCACGTGTTGCA,0.34 kcal/mol
14,GGGGACACGTGGATGC,0.03 kcal/mol
15,TTGCGCACGTGTTTAT,-0.1 kcal/mol
16,AGGATCACGTGGTTGC,0.1 kcal/mol
17,TTTTTCACGTGTACGG,0.41 kcal/mol
18,GGGTGCACGTGCGATA,0.13 kcal/mol
19,GATGTCACGTGAAGGC,0.36 kcal/mol
20,TTGTGCACGTGCCTGT,-0.02 kcal/mol
21,GTGATCACGTGTCGTA,0.16 kcal/mol
22,CGTGCCACGTGTTTAG,-0.07 kcal/mol
23,TATAGCACGTGGGTTC,-0.16 kcal/mol
24,CTCGTCACGTGGGGGC,-0.09 kcal/mol
25,GTGTTCACGTGGTCGA,0.11 kcal/mol
26,CCGGTCACGTGATGGT,0.22 kcal/mol

row,Sequence,relative binding free energy
1,AGCGGCACGTGCGGTG,-0.14 kcal/mol
2,TTGACCACGTGTGTTC,0.1 kcal/mol
3,AAACGCACGTGTTGGT,-0.17 kcal/mol
4,ACATGCACGTGAGTGG,0 kcal/mol
5,TTGGTCACGTGGCTGC,0.02 kcal/mol
6,GGTTACACGTGTATAT,0.06 kcal/mol
7,ACGTGCACGTGGATGT,-0.11 kcal/mol
8,TGTTGCACGTGGCATG,-0.04 kcal/mol
9,GGAAGCACGTGAGGAA,0.16 kcal/mol
10,CTTCGCACGTGTGGGC,0 kcal/mol
11,TGGATCACGTGGGCTA,-0.08 kcal/mol
12,TCGAGCACGTGTTAGT,-0.08 kcal/mol
13,TAATTCACGTGAGGAA,0.32 kcal/mol
14,GTATTCACGTGAAATG,0.53 kcal/mol
15,TAAGACACGTGGCTTT,-0.03 kcal/mol
16,TATTGCACGTGTGTGG,0.09 kcal/mol
17,TGGAACACGTGGTGCA,-0.04 kcal/mol
18,GGTGGCACGTGTGATC,0.16 kcal/mol
19,CCGGTCACGTGGGTAG,-0.2 kcal/mol
20,ATAAGCACGTGTTGGA,-0.25 kcal/mol
21,TGTATCACGTGAGCTA,0.27 kcal/mol
22,GTATACACGTGGATGT,0.11 kcal/mol

# From the BET-seq Pho4 binding data (Le et al. 2018)
